Results on 115 sequences are retold here after the BET-seq Pho4 binding data (Le et al. 2018).

The other results are listed elsewhere or left out. The energies were worked out here from pooled read counts, against the library average; single values are noisy.

The target in the experiment is T1, Pho4 (S. cerevisiae) (UniProt P07270).
T1 sequence: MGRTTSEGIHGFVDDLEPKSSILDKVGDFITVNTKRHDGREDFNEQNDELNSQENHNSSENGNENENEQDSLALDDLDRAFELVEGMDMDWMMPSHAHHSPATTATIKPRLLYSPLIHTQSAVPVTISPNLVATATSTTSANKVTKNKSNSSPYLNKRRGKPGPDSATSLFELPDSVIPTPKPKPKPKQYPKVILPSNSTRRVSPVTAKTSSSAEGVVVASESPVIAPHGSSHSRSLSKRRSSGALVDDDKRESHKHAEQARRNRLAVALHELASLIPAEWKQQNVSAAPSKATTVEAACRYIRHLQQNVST
In words: relative binding free energy (BET-seq); higher = weaker binding. The conditions noted are these: reference: library average.
As to ATGTGCACGTGGTTCG, the “relative binding free energy” value was -0.08 kcal/mol.
For the sequence TGCGGCACGTGTTTGT, the “relative binding free energy” value is -0.06 kcal/mol.
GTTCTCACGTGCGGGG: the “relative binding free energy” value was 0.12 kcal/mol.
As for TGCTACACGTGTGGTA, the “relative binding free energy” value came to 0.07 kcal/mol.
On to GGGTCCACGTGTGATG, for which the “relative binding free energy” value came out at 0.14 kcal/mol.
As to GTGGGCACGTGGCGGG, the “relative binding free energy” value is -0.05 kcal/mol.
For CGGTTCACGTGTGGGA, the “relative binding free energy” value amounted to 0.34 kcal/mol.
To TGATCCACGTGTATGT belongs -0.11 kcal/mol.
Take TTGGACACGTGTTAGG: the “relative binding free energy” value was determined as 0.12 kcal/mol.
To TTGGGCACGTGGGACT belongs -0.12 kcal/mol.
To AGGGGCACGTGGGATT belongs -0.11 kcal/mol; to GAGTGCACGTGGTCCG, 0 kcal/mol.
To TATATCACGTGGGTTA belongs -0.15 kcal/mol; to TGTGGCACGTGTTATC, -0.03 kcal/mol.
Turning to ATGGACACGTGTCGGG, the “relative binding free energy” value is -0.03 kcal/mol.
For CAATGCACGTGAGTGT, the “relative binding free energy” value amounted to 0.14 kcal/mol.
To ATAGCCACGTGCGTGT belongs -0.11 kcal/mol; to ATTGGCACGTGGTCTA, -0.31 kcal/mol; to GTTGGCACGTGTGTTG, 0.1 kcal/mol.
To AGGTGCACGTGTTCGG belongs 0 kcal/mol.
TCTTGCACGTGAGGGT: the “relative binding free energy” value was found to be 0.19 kcal/mol.
To TGGTACACGTGGATTA belongs 0.1 kcal/mol.
Turning to TGTTTCACGTGCCAGG, the “relative binding free energy” value amounted to 0.2 kcal/mol.
To AAGTTCACGTGGGTGG belongs 0.1 kcal/mol; to CGGGACACGTGTGTGC, -0.02 kcal/mol.
AAATGCACGTGAAAGG: the “relative binding free energy” value came out at 0.28 kcal/mol.
To AGTAGCACGTGGTATG belongs -0.04 kcal/mol.
TGCAGCACGTGGGCGT: the “relative binding free energy” value is -0.32 kcal/mol.
On to TAGACCACGTGATGGG, for which the “relative binding free energy” value worked out at 0.07 kcal/mol.
For the sequence ATTTACACGTGGCGGG, the “relative binding free energy” value was 0.06 kcal/mol.
To GTGTTCACGTGGAGTC belongs 0.24 kcal/mol.
To TTGTGCACGTGAGGCC belongs 0.1 kcal/mol; to TGTGGCACGTGCACTG, -0.08 kcal/mol; to TGGGGCACGTGCTTCG, -0.21 kcal/mol.
ATTTGCACGTGTATTC: the “relative binding free energy” value stood at 0.06 kcal/mol.
As to TGATGCACGTGGTTGA, the “relative binding free energy” value was -0.03 kcal/mol.
Regarding AGGGGCACGTGACTAT, the “relative binding free energy” value amounted to 0.03 kcal/mol.
To ATGTGCACGTGAATTT belongs 0.33 kcal/mol; to AATTTCACGTGGTGTG, 0.11 kcal/mol.
As for GTGTACACGTGTTATA, the “relative binding free energy” value was found to be 0.16 kcal/mol.
For the sequence GTGCGCACGTGTCGGT, the “relative binding free energy” value was determined as 0.03 kcal/mol.
ATTGTCACGTGAGGTG: the “relative binding free energy” value was determined as 0.25 kcal/mol.
To AGTTACACGTGGGGCG belongs 0.02 kcal/mol.
As for CCTTTCACGTGTTATG, the “relative binding free energy” value was 0.31 kcal/mol.
Turning to GGTTTCACGTGATCAT, the “relative binding free energy” value is 0.49 kcal/mol.
With TCGGACACGTGTTAGT, the “relative binding free energy” value stood at 0.02 kcal/mol.
Regarding CAGGGCACGTGGAATT, the “relative binding free energy” value is 0.1 kcal/mol.
To TGTTCCACGTGGATAG belongs 0.06 kcal/mol; to TGTATCACGTGGGAAA, 0.14 kcal/mol; to ATTGTCACGTGCTGGC, 0 kcal/mol.
To TCTGTCACGTGTGTTA belongs 0.08 kcal/mol; to TTGGTCACGTGCGTTA, 0.02 kcal/mol.
To TTGGACACGTGGGTAT belongs -0.01 kcal/mol.
For the sequence CATTTCACGTGTCGGG, the “relative binding free energy” value was 0.31 kcal/mol.
Turning to TTTTTCACGTGTTGGC, the “relative binding free energy” value was found to be 0.27 kcal/mol.
For GTCGGCACGTGATAGT, the “relative binding free energy” value came out at 0.03 kcal/mol.
To TGTTACACGTGTATGC belongs 0.1 kcal/mol; to TGTGACACGTGAAGGC, 0.3 kcal/mol; to GGTATCACGTGTGCTT, 0.18 kcal/mol.
Turning to CAGGGCACGTGCGTGT, the “relative binding free energy” value is -0.21 kcal/mol.
To CTGGACACGTGTTTGG belongs -0.03 kcal/mol; to AGTGTCACGTGTGGCC, 0.09 kcal/mol.
For the sequence GGACTCACGTGTATGG, the “relative binding free energy” value came out at 0.19 kcal/mol.
To CTGGACACGTGGTGCG belongs -0.02 kcal/mol; to GTATGCACGTGCTAGG, -0.1 kcal/mol; to GGAGCCACGTGAATGT, 0.25 kcal/mol.
To AGAGGCACGTGCCGGT belongs -0.2 kcal/mol; to CGGGGCACGTGTTAAA, -0.02 kcal/mol; to GGGGCCACGTGAAGGA, 0.22 kcal/mol.
Take TTTTCCACGTGTTAGT: the “relative binding free energy” value amounted to 0.16 kcal/mol.
To GGCAGCACGTGTTGTT belongs -0.05 kcal/mol.
To TTTAACACGTGGAGAT belongs 0.15 kcal/mol; to TATATCACGTGGAGGG, 0.07 kcal/mol; to GTGGCCACGTGGGTCT, -0.23 kcal/mol.
To AAGCTCACGTGAGGGT belongs 0.35 kcal/mol.
For the sequence TGCGTCACGTGTTGCT, the “relative binding free energy” value amounted to 0 kcal/mol.
For AGGGACACGTGTAAGG, the “relative binding free energy” value was -0.05 kcal/mol.
To TAGTTCACGTGGTCAG belongs 0.1 kcal/mol; to TGACTCACGTGGGGAG, 0.04 kcal/mol.
Regarding TTTAGCACGTGGAATT, the “relative binding free energy” value is 0.08 kcal/mol.
In the case of TGGGCCACGTGTTTGC, the “relative binding free energy” value was -0.02 kcal/mol.
GTGCTCACGTGTGTCT: the “relative binding free energy” value was 0.25 kcal/mol.
To GGGTTCACGTGTATCT belongs 0.38 kcal/mol.
TGTCGCACGTGGAAGG: the “relative binding free energy” value was determined as 0 kcal/mol.
Consider TTTCACACGTGATAGG, for which the “relative binding free energy” value turned out to be 0.21 kcal/mol.
As to AGGCACACGTGAGGGG, the “relative binding free energy” value was determined as 0.21 kcal/mol.
To CTGATCACGTGTTTGT belongs 0.07 kcal/mol.
TGATCCACGTGTGGTG: the “relative binding free energy” value is -0.05 kcal/mol.
To ACGGTCACGTGGGGGT belongs -0.05 kcal/mol; to TTCCGCACGTGTTGTT, -0.02 kcal/mol; to CGGATCACGTGTCGGT, 0.08 kcal/mol.
To TTGTACACGTGTCATG belongs 0.03 kcal/mol; to TTCGTCACGTGGTGGT, 0.04 kcal/mol.
Regarding AAGGGCACGTGGCTTG, the “relative binding free energy” value was -0.2 kcal/mol.
As for GGTGGCACGTGTCAAT, the “relative binding free energy” value was -0.08 kcal/mol.
To GTTTTCACGTGTGAAC belongs 0.45 kcal/mol; to TTATTCACGTGTGGTC, 0.18 kcal/mol; to TATAGCACGTGGTATT, -0.34 kcal/mol.
Take GTGTACACGTGCGGTG: the “relative binding free energy” value worked out at 0.15 kcal/mol.
To ATAGTCACGTGCTAGG belongs 0.03 kcal/mol.
To GTAGGCACGTGTAGAG belongs -0.13 kcal/mol; to TAAGACACGTGATGGG, 0.11 kcal/mol; to TGAAGCACGTGCGTGG, -0.18 kcal/mol.
To TTCAGCACGTGAGTTG belongs 0.13 kcal/mol; to TATTGCACGTGGCAGA, -0.1 kcal/mol; to TATTGCACGTGGTTAT, -0.09 kcal/mol.
In the case of TTGGGCACGTGCAGGG, the “relative binding free energy” value is -0.11 kcal/mol.
In the case of TTAATCACGTGAGTGG, the “relative binding free energy” value is 0.34 kcal/mol.
For GTGTACACGTGCTTGA, the “relative binding free energy” value is 0.03 kcal/mol.
Turning to AGTTTCACGTGCGGGC, the “relative binding free energy” value was found to be 0.13 kcal/mol.
To GGTGGCACGTGCTGTG belongs -0.02 kcal/mol; to TAAAGCACGTGTTGGT, -0.11 kcal/mol.
To GGTAGCACGTGGAAGG belongs 0.17 kcal/mol; to AAGAACACGTGAAGTG, 0.38 kcal/mol.
To GGGAGCACGTGGATTC belongs 0.06 kcal/mol.
